Results on 43 molecules are retold here after publication PMC4336329 (PLoS ONE, 2015).

The campaign covered roughly 310,000 compounds. About 14,000 (4.5%) showed an effect of 50% or more. The effect is printed as a negative number. The list shows a part of the results.
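Also: peak tail current of the secondary pulse compared with the same well before compound.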

For the experiment, the target named is human ether-à-go-go-related gene (hERG) potassium channel (human, UniProt Q12809). In words: primary screen, population patch clamp on CHO cells stably expressing hERG.
Sequence of human ether-à-go-go-related gene (hERG) potassium channel (Q12809 whole entry, looked up): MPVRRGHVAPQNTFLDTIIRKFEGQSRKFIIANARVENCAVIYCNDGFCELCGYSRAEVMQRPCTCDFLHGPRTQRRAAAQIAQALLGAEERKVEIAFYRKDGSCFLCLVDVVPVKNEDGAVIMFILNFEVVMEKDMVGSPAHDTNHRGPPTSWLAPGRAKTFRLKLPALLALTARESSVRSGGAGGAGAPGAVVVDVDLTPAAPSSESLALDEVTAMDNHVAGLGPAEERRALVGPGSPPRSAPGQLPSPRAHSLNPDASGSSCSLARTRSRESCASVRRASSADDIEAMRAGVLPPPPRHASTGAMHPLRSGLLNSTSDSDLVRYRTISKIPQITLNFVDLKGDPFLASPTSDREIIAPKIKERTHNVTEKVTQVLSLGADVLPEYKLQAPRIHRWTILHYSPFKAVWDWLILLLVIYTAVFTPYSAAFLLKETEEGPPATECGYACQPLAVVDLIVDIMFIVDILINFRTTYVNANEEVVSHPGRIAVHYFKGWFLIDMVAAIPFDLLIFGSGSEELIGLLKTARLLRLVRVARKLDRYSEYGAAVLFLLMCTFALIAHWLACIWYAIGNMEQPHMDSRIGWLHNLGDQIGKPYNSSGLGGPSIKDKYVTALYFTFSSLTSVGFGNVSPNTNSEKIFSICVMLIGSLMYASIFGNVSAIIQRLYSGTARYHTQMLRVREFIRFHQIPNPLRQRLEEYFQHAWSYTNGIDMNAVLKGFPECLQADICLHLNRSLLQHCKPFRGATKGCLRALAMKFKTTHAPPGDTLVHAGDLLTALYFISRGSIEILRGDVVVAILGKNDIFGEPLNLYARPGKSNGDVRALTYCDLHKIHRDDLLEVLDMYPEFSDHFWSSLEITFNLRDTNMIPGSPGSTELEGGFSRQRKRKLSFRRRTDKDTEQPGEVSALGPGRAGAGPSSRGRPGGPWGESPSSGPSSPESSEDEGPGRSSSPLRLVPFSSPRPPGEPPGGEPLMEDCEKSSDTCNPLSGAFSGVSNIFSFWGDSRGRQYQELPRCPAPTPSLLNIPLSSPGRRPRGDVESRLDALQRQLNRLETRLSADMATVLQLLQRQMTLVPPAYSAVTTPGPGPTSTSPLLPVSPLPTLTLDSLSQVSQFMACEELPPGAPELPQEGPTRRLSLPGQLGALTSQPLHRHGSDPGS
As to `Fc1ccc(OCc2nn3cnnc3s2)cc1`, the “hERG current change (%, negative = inhibition) at 10uM” value is 5%.

For `Cc1cccc(N2C(=O)CC(N3CCN(Cc4ccc5c(c4)OCO5)CC3)C2=O)c1` (stereo not shown), the “hERG current change (%, negative = inhibition) at 10uM” value was -19.1%.

Consider `O=C1c2ccccc2NC(c2ccc(-c3ccc(Br)cc3)o2)N1O` (stereo not shown), for which the “hERG current change (%, negative = inhibition) at 10uM” value was -9.56%.

Consider `CCOC(=O)C1=C(COC(=O)c2cccs2)NC(=O)NC1C` (stereo not shown), for which the “hERG current change (%, negative = inhibition) at 10uM” value turned out to be 6.08%.

Take `c1ccc2c(c1)CC(N1CCCCC1)c1ccccc1N2` (stereo not shown): the “hERG current change (%, negative = inhibition) at 10uM” value was -15.2%.

For the molecule `CNC(=O)CSc1nnc(-c2cccc(S(=O)(=O)N3CCOCC3)c2)n1-c1ccc(F)cc1`, the “hERG current change (%, negative = inhibition) at 10uM” value is 2.23%.

`CC(O)c1nc2ccccc2n1C/C=C/c1ccccc1` (stereo not shown): the “hERG current change (%, negative = inhibition) at 10uM” value is given as -13.3%.

For the molecule `COc1ccc(Cc2nccc3cc(OC)c(OC)cc23)cc1OC.Cl`, the “hERG current change (%, negative = inhibition) at 10uM” value was -7.68%.

Turning to `COc1ccc(C(=O)NC(=S)Nc2ccc(S(=O)(=O)Nc3cc(C)on3)cc2)cc1OC`, the “hERG current change (%, negative = inhibition) at 10uM” value is 4.8%.

On to `Cc1ccc(NC(=O)N(C2=NCC(C)S2)c2ccccc2)cc1` (stereo not shown), for which the “hERG current change (%, negative = inhibition) at 10uM” value worked out at 16.3%.

As to `COc1ccccc1C(=O)Nc1cc2c(ccc3ccccc32)oc1=O`, the “hERG current change (%, negative = inhibition) at 10uM” value is -1.2%.

On to `COc1ccc(C)cc1NC(=O)c1cc(S(=O)(=O)N2CCCCC2)ccc1N1CCOCC1`, for which the “hERG current change (%, negative = inhibition) at 10uM” value is on record as -39.2%.

For `N#Cc1ccc(-c2ccc3c(c2)OCO3)nc1SCC(=O)OCc1ccccc1`, the “hERG current change (%, negative = inhibition) at 10uM” value is 9.22%.

Turning to `O=C(NC(=Nc1ccccc1)N1CCOCC1)Nc1ccccc1`, the “hERG current change (%, negative = inhibition) at 10uM” value was 0.147%.

With `CCOC(=O)N1CCC(O)(c2cc(C)c(C)cc2C)CC1`, the “hERG current change (%, negative = inhibition) at 10uM” value was -2.36%.

For `CCCNc1c(NS(=O)(=O)c2ccc(Cl)s2)c(=O)oc2ccccc12`, the “hERG current change (%, negative = inhibition) at 10uM” value is given as -49.1%.

Turning to `COC(=O)c1sc2ccccc2c1NC(=O)c1ccc(S(=O)(=O)N2CCCCC2)cc1`, the “hERG current change (%, negative = inhibition) at 10uM” value was found to be 11.2%.

On to `Nc1c(-c2ccccc2)cnn1C1CCS(=O)(=O)C1` (stereo not shown), for which the “hERG current change (%, negative = inhibition) at 10uM” value was 4.46%.

In the case of `Cc1ccc(O)c(NC(=O)C2=CC(c3cccs3)=NS(=O)(=O)N2C)c1`, the “hERG current change (%, negative = inhibition) at 10uM” value was -2.67%.

Consider `CC1CCc2nn(CC(=O)NCc3ccc(F)cc3)cc2C1` (stereo not shown), for which the “hERG current change (%, negative = inhibition) at 10uM” value was 1.41%.

Regarding `CCN1CCN(c2cc(C)c3cc(NC(=S)N(C)Cc4ccccc4)ccc3n2)CC1`, the “hERG current change (%, negative = inhibition) at 10uM” value was -77.7%.

As for `COc1ccccc1CNC(=O)c1ccc(N(C)S(=O)(=O)c2ccc(C)cc2)cc1`, the “hERG current change (%, negative = inhibition) at 10uM” value came to 17.5%.

As to `Cc1nc(Cc2nnc(SCC(=O)Nc3c(C)cccc3C)o2)cs1`, the “hERG current change (%, negative = inhibition) at 10uM” value was determined as 15.1%.

With `NS(=O)(=O)c1ccc(NC(=O)COc2ccc(C(=O)c3ccc(F)cc3)cc2)cc1`, the “hERG current change (%, negative = inhibition) at 10uM” value was -49%.

Consider `O=C(Nc1ccc(F)cc1F)c1ccco1`, for which the “hERG current change (%, negative = inhibition) at 10uM” value is 2.94%.

As for `COc1ccc(CN2CC(C(=O)NCc3cccc(OC)c3)CC2=O)cc1` (stereo not shown), the “hERG current change (%, negative = inhibition) at 10uM” value is on record as -4.84%.

For the molecule `CCOC(=O)N1CCN(C(=O)CS(=O)(=O)Cc2nc(-c3cccc(OC)c3)oc2C)CC1`, the “hERG current change (%, negative = inhibition) at 10uM” value is on record as -26.6%.

Regarding `O=C(N/N=C/c1ccc(O)c(O)c1)c1cccc(S(=O)(=O)N2CCCC2)c1`, the “hERG current change (%, negative = inhibition) at 10uM” value is given as -14.9%.

Regarding `CC(NC(=S)NCCc1ccccc1)C(c1cccs1)N1CCN(Cc2ccccc2)CC1` (stereo not shown), the “hERG current change (%, negative = inhibition) at 10uM” value was -41.3%.

Take `CC(C)NC(=O)CCn1ccc2cc(S(=O)(=O)N3CCCC3)ccc21`: the “hERG current change (%, negative = inhibition) at 10uM” value came to 16.5%.

Consider `CN(C)c1ccc(/C=C/c2cc[n+](C)cc2)cc1.[I-]`, for which the “hERG current change (%, negative = inhibition) at 10uM” value is listed as 2.73%.

Consider `O=C(Nc1ccc(S(=O)(=O)Nc2ccccn2)cc1)c1ccccc1`, for which the “hERG current change (%, negative = inhibition) at 10uM” value came out at 15.8%.

With `Cc1csc(=O)n1CCC(=O)OC(C)C(=O)Nc1ccc(N2CCOCC2)cc1` (stereo not shown), the “hERG current change (%, negative = inhibition) at 10uM” value is 11.2%.

On to `CCOC(=O)c1oc2cc(C)cc(C)c2c1C`, for which the “hERG current change (%, negative = inhibition) at 10uM” value amounted to 18.7%.

Turning to `COc1ccc(-n2c(-c3ccccc3Br)nc3ccccc3c2=O)cc1`, the “hERG current change (%, negative = inhibition) at 10uM” value is listed as -20.9%.

As for `N#Cc1cc2c(nc1S(=O)(=O)Cc1ccccc1)CCCC2`, the “hERG current change (%, negative = inhibition) at 10uM” value is on record as 1.48%.

In the case of `COc1cccc(CN2CC(C(=O)N(C)Cc3nc4ccc(F)cc4[nH]3)CCC2=O)c1` (stereo not shown), the “hERG current change (%, negative = inhibition) at 10uM” value came out at 3.99%.

For `CCOc1cc(Cl)c(S(=O)(=O)NCc2cccnc2)cc1Cl`, the “hERG current change (%, negative = inhibition) at 10uM” value is reported as 3.6%.

`O=C(COc1ccccc1)Nc1ccc2oc(=O)ccc2c1`: the “hERG current change (%, negative = inhibition) at 10uM” value is recorded as 4.76%.

With `O=[N+]([O-])c1cccc(/C=N/NC2CCS(=O)(=O)C2)c1` (stereo not shown), the “hERG current change (%, negative = inhibition) at 10uM” value was found to be 11.9%.

As for `O=C(Nc1ccccc1)c1ccc(NCc2cccnc2)c(S(=O)(=O)N2CCOCC2)c1`, the “hERG current change (%, negative = inhibition) at 10uM” value was -47.8%.

With `Cc1ccc2c(C)c(C(=O)NCCc3ccco3)oc2c1C`, the “hERG current change (%, negative = inhibition) at 10uM” value was 13%.

For the molecule `CC(=O)OC1COC(n2c(O)c(N=NC(N)=S)c3ccccc32)C(OC(C)=O)C1OC(C)=O` (stereo not shown), the “hERG current change (%, negative = inhibition) at 10uM” value came to 15.8%.
